Survival data for 57 compounds are collected here from PubChem BioAssay AID463173 (ICCB-Longwood Screening Facility, Harvard Medical School, 2010).

Among all 52,000 compounds or so, about 1,700 (3.3%) were called active. No stated cut-off is given here; in the data, active means survival mostly below about 52% (no sharp cut-off); inactive means mostly above about 56%. The list shows a part of the results.

For the assay, the system named is Wild type. In words: growth inhibition of S. aureus wild type versus tarO mutant, primary screen, teichoic acid synthesis inhibitors, RN4220, OD600 (AID 463173). The settings on record: S. aureus RN4220 wild type/DeltatarO growth, OD600, 18 h, active compounds read low, screened at 18.75 µg/mL (by protocol).
Consider `Nc1nc(SCc2cccc3ccccc23)n[nH]1`, for which the survival was inactive: 98%.
On to `CCOc1ccccc1-c1noc(CSc2nnc(-c3ccccc3)n2-c2ccc(OC)cc2)n1`, for which the survival was inactive: 75%.
Regarding `CCOC(=O)N1CCC(NC(=O)c2ccc3c(c2)N(Cc2ccccc2C)C(=O)c2ccccc2S3=O)CC1` (configuration not stated), the survival was inactive: 80%.
Consider `CC(C)c1ccc(C2CC(=O)Nc3cc4c(cc32)OCCO4)cc1` (configuration not stated), for which the survival is inactive: 71%.
In the case of `CN(Cc1nc(-c2ccc(Cl)cc2)no1)S(=O)(=O)c1ccccc1`, the survival is inactive: 82%.
For `CCc1ccc(NC(=O)Cn2nnc(-c3ccccc3N)n2)cc1`, the survival was inactive: 103%.
The figure for `COc1ccc(S(=O)(=O)N(CC(=O)NC(C)c2ccccc2)c2ccc(C)cc2)cc1OC` (configuration not stated) is inactive: 86%; for `COc1ccc(N2CCN(CCCNC(=O)c3c(C)nn(-c4ccc(F)cc4)c3-n3cccc3)CC2)cc1` it is inactive: 78%.
In the case of `O=C(CCC(=O)NC1CCN(Cc2ccccc2)CC1)NCc1ccco1` it was inactive: 96%; in that of `CCOC(=O)N1CCc2c(sc3c2c(=O)n(-c2ccc(CC)cc2)c(=O)n3Cc2ccc(F)cc2Cl)C1`, inactive: 94%; in that of `COc1ccccc1N1CCN(C(=O)c2cc3c(=O)n(Cc4cccs4)ccc3nc2C)CC1`, inactive: 88%.
As to `Cc1ccc(-n2ncc3c(NCCCn4ccnc4)ncnc32)cc1C`, the survival was inactive: 66%.
The figure for `CCOC(=O)c1c(NC(=O)Cc2coc3ccc(CC)cc23)sc2c1CCC2` is inactive: 81%; for `CCOc1ccc2nc(N3CCCC(C(=O)NCCc4ccc(Cl)cc4)C3)sc2c1` (configuration not stated) it is inactive: 71%.
In the case of `CCOc1ccc(NC(=O)Cn2nc(Cc3cccnc3)c3ccccc3c2=O)cc1` it was inactive: 72%; in that of `COc1ccccc1NC(=O)N1CCN(c2ccc3nnc(-c4ccc(F)cc4)n3n2)CC1`, inactive: 75%; in that of `CC(C)C(=O)Nc1nnc(S(=O)(=O)N2CCc3ccccc32)s1`, inactive: 79%.
In the case of `Cc1cccc(N2CCN(c3ccc4cc(S(=O)(=O)N5CCC(C)CC5)ccc4n3)CC2)c1C` it was inactive: 87%; in that of `CC1(C)Oc2ccc(NC(=O)c3ccco3)cc2O1`, inactive: 106%; in that of `CCOC(=O)c1c(C)oc2ncnc(Nc3cccc(C(F)(F)F)c3)c12`, inactive: 88%.
`CCc1ccc(NC(=O)CC(NCc2cccnc2)C(=O)O)cc1` (configuration not stated): the survival was inactive: 74%.
As to `O=c1oc2ccccc2cc1-c1cn2cc(Cc3ccc(F)cc3)sc2n1`, the survival was inactive: 133%.
As to `Cc1ccc(OCC(=O)Nc2ccc(OCc3cc(=O)n4c(C)csc4n3)cc2)cc1C`, the survival is inactive: 137%.
For `Cc1ccc(Cn2ccnc2SCC(=O)NCc2ccccc2)cc1`, the survival was inactive: 72%.
The figure for `CCOc1ccccc1Nc1sc(C(=O)c2ccccc2)c(N)c1C(=O)Nc1ccc(F)cc1` is inactive: 80%.
The figure for `CCOC(=O)c1cccc(NC(=O)Cn2ncc3c(=O)oc4ccccc4c32)c1` is inactive: 84%.
In the case of `COc1ccc(CNC(=O)C(=O)NCC(c2ccco2)S(=O)(=O)c2ccc(Cl)cc2)cc1` (configuration not stated) it was inactive: 133%.
Turning to `Cn1c(=O)c2c(nc(SCC(=O)Nc3ccccc3F)n2Cc2ccccc2F)n(C)c1=O`, the survival is inactive: 93%.
The figure for `CSc1ccc(CCNC(=O)Cn2nc(C)n3c(cc4sccc43)c2=O)cc1` is inactive: 92%; for `Cc1nc(-c2ccc(Cl)cc2)sc1CCNC(=O)C(=O)Nc1ccc2c(c1)OCO2` it is inactive: 74%.
In the case of `Cc1ccc(NC(=O)c2ccc3c(c2)NC(=O)c2ccccc2S3)c(Cl)c1` it was inactive: 97%.
As to `Cc1nn(CC(=O)NC2CC2)c(=O)c2cc3cc(F)ccc3n12`, the survival is inactive: 82%.
For the compound `COc1cc(C2CC(=O)Nc3cc4c(cc32)OCO4)cc(OC)c1O` (configuration not stated), the survival was inactive: 84%.
Consider `Cc1c(C)n(Cc2ccc(Cl)cc2)c2ccc(C(=O)N3CCN(c4ccccc4F)CC3)cc12`, for which the survival was inactive: 81%.
As to `COc1cccc(NC(=O)Cn2c(=O)oc3cc(S(=O)(=O)N4CCCCC4)ccc32)c1`, the survival was inactive: 140%.
The figure for `Cc1ccc(C(=O)c2oc3ccccc3c2NC(=O)COc2ccc(Cl)c(C)c2)cc1` is inactive: 73%; for `COc1ccc(OC)c(CCNC(=O)c2nc(-c3ccc(Cl)cc3)n3c2CCCCC3)c1` it is inactive: 83%; for `O=S(=O)(NC1CCCC1)c1cccc(S(=O)(=O)N2CCCCC2)c1` it is inactive: 104%.
As to `CC(C)COc1ccc(C(=O)N2CCCCC2CCN2CCOCC2)cc1` (configuration not stated), the survival is inactive: 86%.
In the case of `CSc1nn(Cc2ccc(F)cc2)c(N(C(C)=O)C(C)=O)c1S(=O)(=O)c1ccccc1` it was inactive: 59%; in that of `CCc1cccc(CC)c1NC(=O)CN(C)S(=O)(=O)c1ccc2c(c1)n(C)c(=O)c(=O)n2C`, inactive: 81%.
As for `COc1cc2nc(C3CCC3)n(NC(=O)c3ccco3)c(=O)c2cc1OC`, the survival was inactive: 88%.
As for `CCCCN(C(=O)c1cccs1)c1nnc(-c2cc(OC)cc(OC)c2)s1`, the survival was inactive: 116%.
In the case of `COc1cccc(CNC(=O)C2CCCN(c3nnc(-n4c(C)ccc4C)s3)C2)c1OC` (configuration not stated) it was inactive: 85%; in that of `CC(=O)Nc1c(C(=O)c2ccc(F)cc2)oc2ccccc12`, inactive: 102%.
Regarding `Cc1ccc(C(=O)CSc2nc(C)cc(C)c2C(=O)Nc2cccc(C)c2)cc1`, the survival was inactive: 84%.
The figure for `Cc1ccc2nc(COc3ccccc3NC(=O)Nc3ccc(F)c(Cl)c3)cc(=O)n2c1` is inactive: 75%; for `Cc1cccc(NC(=O)CSc2cn(CC(=O)N3CCOCC3)c3ccccc23)c1C` it is inactive: 89%; for `CCSc1nc(-c2ccc(OC)cc2)nc2c1Cc1c(CO)cnc(C)c1O2` it is inactive: 82%.
In the case of `Nc1ccc2nc(CO)[nH]c2c1` it was inactive: 106%; in that of `CC(=O)N1CCCc2ccc(NC(=O)c3ccc(OC(C)C)cc3)cc21`, inactive: 86%; in that of `Cc1nc2c3ccccc3nc(NNC(=O)CCC(=O)N3CCN(c4ccc(F)cc4)CC3)n2n1`, inactive: 87%.
The figure for `O=C(Nc1ccc(OC(F)(F)F)cc1)c1cc(-c2ccc(Cl)cc2)on1` is inactive: 105%; for `Cc1occc1C(=O)NC(C)C12CC3CC(CC(C3)C1)C2` (configuration not stated) it is inactive: 101%.
With `Cc1ccc(-n2c3nc(=O)n(C)c(=O)c-3cc3ccccc32)c(C)c1`, the survival is inactive: 121%.
Turning to `CCC(=O)N1CCc2cc(Br)cc(S(=O)(=O)N3CCCC(C(=O)NCc4ccc(C)cc4)C3)c21` (configuration not stated), the survival is inactive: 97%.
Consider `COc1ccc(/C=C/c2nc(C#N)c(N3CCCCC3)o2)cc1OC`, for which the survival is inactive: 87%.
